Measured values published in paper PMC12136788.
The other results are listed elsewhere or left out.

T1: UNK ZnF1-3 (human, UniProt Q9C0B0 31-174)
T1 sequence: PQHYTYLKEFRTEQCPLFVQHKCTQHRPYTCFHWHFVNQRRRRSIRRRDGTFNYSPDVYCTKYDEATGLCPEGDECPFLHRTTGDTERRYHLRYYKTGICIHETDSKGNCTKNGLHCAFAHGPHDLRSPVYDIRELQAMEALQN

B1: 100036852_100040021_4268_CDS_ENSMUSG00000023026_ENSMUST00000100203|mouse|control|control (ssRNA)
RNA: GGGAGUUCUACAGUCCGACGAUCAUUCACCCAGAUCUCUCCCAGGUGAGAGUCUCCAACAGGUCCUUUGGUCUCAGGAUUGACAAUAACUACUUUUACUCCAGGUAAGAUCUUUCCAGAUUCAGAAAGCAGGAGGCUCUGGGGCAACAGAGGAUUGAGCAUCA
B2: chr2:179515052:179515053:+_ENSMUSG00000000305_ENSMUST00000000314|mus_mus|FALSE|FALSE (ssRNA)
RNA: GGGAGUUCUACAGUCCGACGAUCGCGUUCCCGCGCAGUGACGGUAAAGGCCACCUGCUCUGAGGGGAUCUUCAACUCCCUAGUGGCGAAGACUGUCCCAUCCGCCCCGACUUUGAAGUCCAAGCUGUUGGUCUCAUACUGCAUCAACAGAGGAUUGAGCAUCA
B3: chr8:95500983:95500984:-_ENSG00000164944_ENST00000437199|hu_hu|hu_hu_hu_mus_True|48_68 (ssRNA)
RNA: GGGAGUUCUACAGUCCGACGAUCAGAACACAUCUAUCGAGUAAAGGACCGUACAUGACGGCCUCUAACCACUGCCUCACUAACAAAACUUUCCUCUGAGCCUCCACUGCCGCUAUUUGUACUAGCCCAGGACGGUCCCAGGCCCAACAGAGGAUUGAGCAUCA
B4: chr8:38205342:38205343:-_ENSG00000147548_ENST00000316985|hu_mus|FALSE|FALSE (ssRNA)
RNA: GGGAGUUCUACAGUCCGACGAUCCAGAAUUUCAUGUGGUCUUGUGUUUGGAAUUUCUGAAUGGUAAUAGUCAGUAGGGCUAAAGUUUCUAACUGCACCAAAACCGUUGGCUGACCCAUUGGGAUACUGAUUAUAUGGCGGGUACAACAGAGGAUUGAGCAUCA
B5: chr4:120755967:120755968:-_ENSMUSG00000043207_ENSMUST00000058754|mus_hu|motif|central (ssRNA)
RNA: GGGAGUUCUACAGUCCGACGAUCGAUUGCAUCUUUCAUGAAGAACCCCAAAGUCUGUUGAUUGAAGCCAUGUUUUUCUUCGGUCACAAAAGUAUUAUAAAGACUCCAUGGCAAACCAGUCAAUGCACUGAAAAGUGUAGCCAACAACAGAGGAUUGAGCAUCA
B6: chr2:47389482:47389483:-_ENSG00000143933_ENST00000272298|hu_mus|FALSE|FALSE (ssRNA)
RNA: GGGAGUUCUACAGUCCGACGAUCCUCUGCUGCACUAAUAUAGCCAUUGCCAUCCUUAUCAAACACACGGAAUGCUUCUCUAAUCUCUUCUUCACUGUCUGUGUCUUUCAUUUUUCUUGCCAUCAUUGUCAGAAAUUCAGGGAACAACAGAGGAUUGAGCAUCA

What follows are binders tested against T1, UNK ZnF1-3 (assay: nsRBNS (natural sequence RNA bind-n-seq); RBNS binding buffer (assumed for nsRBNS): 25 mM Tris pH 7.5, 150 mM KCl, 3 mM MgCl2, 0.01% Triton X-100, 500 ug/ml BSA, 20 U/ml SUPERase-In, 4 C; UNK is unkempt and MSI1 is Musashi-1; names of the RNAs are library labels; protein concentration not given here; high values mean tight binding).

| Binder | binding signal [enrichment R] |
| --- | --- |
| B1 | 1.48 |
| B2 | 0.775 |
| B3 | 1.16 |
| B4 | 1.27 |
| B5 | 1.34 |
| B6 | 0.86 |
